Each structure is given as a SMILES string. In all, about 50,000 compounds went through this assay and about 800 (1.6%) showed an effect of 50% or more. Some of the results follow.

The target in this test is Bcl-2-like protein 10 (Homo sapiens) (UniProt Q9HD36). Description: Phenotype converters, Bcl-B/TR3 peptide binding displacement, primary biochemical FP (AID 1240).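 Further: 0% = Bcl-B with tracer peptide and DMSO and 100% = tracer peptide lacking Bcl-B.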 The following applies: GST-Bcl-B / FITC-TR3 peptide fluorescence polarization; stronger effect = higher value; compound at 3.75 mg/L. In general terms: Polarisation of emitted light reports the rotation of a fluorescent probe.
Chain of UniProt Q9HD36 (Q9HD36 whole entry, looked up): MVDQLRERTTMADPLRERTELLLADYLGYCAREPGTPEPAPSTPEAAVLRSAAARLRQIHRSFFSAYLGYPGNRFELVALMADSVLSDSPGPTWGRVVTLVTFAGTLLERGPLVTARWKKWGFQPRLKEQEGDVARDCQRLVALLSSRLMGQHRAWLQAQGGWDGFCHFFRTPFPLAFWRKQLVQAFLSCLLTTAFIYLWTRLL
Consider `CC(O)C(NC(=S)NCc1ccccc1)C(=O)O` (centres undefined), for which the displacement is -1.1%.
The value for `Cc1cc(C)c(S(=O)(=O)NNc2ccccc2)c(C)c1` was -1.6%; that for `COc1cc2ccccc2cc1C(=O)Nc1ccc(S(=O)(=O)Nc2nc(C)cc(C)n2)cc1` was 1.2%.
Take `COc1ccc(NC(=O)C(=O)NCCN2CCN(S(=O)(=O)c3ccccc3)CC2)cc1`: the displacement turned out to be 9.5%.
The value for `Cc1cc(Cl)ccc1OCC(O)CN1C(C)CCCC1C` (centres undefined) was 0.8%; that for `Cc1cc(Br)c(-c2ccc(/C=C3/SC(=S)NC3=O)o2)cc1C` was 20.9%; that for `CC1(C)CC(=O)C2=C(C1)NC1=C(C(=O)CC(C)(C)C1)C2c1ccc(I)cc1` was -6.5%.
As to `CC1=C(C)CC(C(=O)NCCc2ccc(S(N)(=O)=O)cc2)C(C(=O)O)C1` (centres undefined), the displacement came out at 14.3%.
The value for `Cc1cccc(C(=O)N2CCCCCC2)c1` was -4.2%; that for `COC(=O)C1=C(C)N(Cc2ccco2)C(=O)/C1=C\c1cccc([N+](=O)[O-])c1` was -3.4%; that for `CC(C)C(NC(=O)c1ccccc1)C(=O)OCC(=O)Nc1ccc(S(N)(=O)=O)cc1` (centres undefined) was 13.1%.
On to `O=C1NC(=S)N(c2ccccc2F)C(=O)/C1=C/c1ccc(Sc2ccccc2)o1`, for which the displacement was 14.2%.
`Cc1cccc(-c2nnc(NC(=O)Nc3ccc(Cl)c(Cl)c3)s2)c1`: the displacement stood at 11.6%.
The value for `O=C(O)COc1ccccc1/C=N/NC(=O)COc1c(Br)cc(Br)cc1Br` was 6.3%.
Under `C=CCN1C(=O)/C(=C\c2ccc3c(c2)OCO3)SC1=Nc1ccccc1` stands 1.6%; under `COC(=O)c1cc(C(=O)N2CC(C)OC(C)C2)cc([N+](=O)[O-])c1` (centres undefined), 10.9%.
Under `C/C(=C\C(=O)c1ccccc1)Nc1ccc(Br)c(Cl)c1` stands 5%.
As to `Cc1cc2nc3s/c(=C/c4ccccc4F)c(=O)n3c2cc1C`, the displacement is 10.6%.
Take `CCOCCOC(=O)c1ccc(NC(=O)c2cccnc2)cc1`: the displacement was found to be 14%.
The value for `Cc1ccnc(NC(=O)COc2cc(C)ccc2C(C)C)c1` was -15.3%; that for `CCOC(=O)c1sc(NC(=O)CC(c2ccccc2)c2ccccc2)c(C(N)=O)c1C` was -1.5%; that for `COc1cc(C2Nc3ccccc3NC3=C2C(=O)CC(c2ccccc2)C3)cc(Cl)c1O` (centres undefined) was -0.9%.
Under `COc1cc(C(=O)Nc2nc3ccc4ccccc4c3s2)cc(OC)c1OC` stands 6.6%; under `COc1cccc(C2CC(c3cccs3)=NN2c2ccc(F)cc2)c1OC` (centres undefined), 1%.
Under `COc1ccc(C(=O)/C=C\Nc2ccc3c(c2)OCO3)cc1OC` stands 13.6%.
Consider `Cc1ccccc1NC(=O)CCC(=O)N/N=C/c1cccnc1`, for which the displacement amounted to 4.2%.
For the compound `O=C1CS/C(=N/N=C/c2cc3c(cc2[N+](=O)[O-])OCO3)N1`, the displacement amounted to 4.2%.
The value for `CCOC(=O)CSc1nnc(-c2cccc(OC)c2)n1-c1ccccc1` was 2.4%.
The value for `CSc1nc(-c2ccccc2)nc(N2CCOCC2)c1C(C)=O` was 6.9%.

For the origin of these results see PubChem BioAssay AID1240 (Sanford-Burnham Center for Chemical Genomics, 2008).
